In patent US8580254B2, “Anti-IGF antibodies” (Boehringer Ingelheim International GmbH, priority 2007, dated 2013):

Key:
rat IGF-2 = biological target: T1, rat IGF-2 (Rattus norvegicus, UniProt P01346); assay: Surface plasmon resonance (Biacore), antibody capture method; format: binding
T1 construct: insulin-like growth factor-2 (IGF-2; a 67 amino-acid polypeptide)
Method: (§1) a) Antibody Capture Method
(§2) The sensor chip is coated with approximately 1000 RU of the reference antibody in flow cell 1 and approximately 1000 RU of a rabbit-anti-human Fc-gamma-specific antibody in flow cell 2 using the coupling reagents from an amine coupling kit. A target of 1000 RU is set in the surface preparation wizard of the Biacore 3000 software at a flow rate of 5 μl/min. Running buffer used is HBS-EP. The affinity measurements are made using the following parameters: 20 μl/min flow (HCB running buffer:); 25° C. detection temperature; Fc1, Fc2 flow paths; Fc1, Fc2 detection; anti-IGF-huMAb-capturing: 3 min of a 1 μg/ml solution; 5 min IGF-Ag-association; 5 min IGF-Ag-dissociation; regeneration: 30 sec pulse with 50 mM HCl. The IGF antigens are diluted to 500, 250, 125, 62.5 and 31.3 nM in running buffer (HCB) and the different antigen dilutions are run singly over Fc1 and Fc2 with random order. Blank runs using running buffer only are run in-between. A blank run curve is subtracted from each binding curve before affinity analysis. Data evaluation is performed using the BIAevaluation software (version 4.1, Biacore, Freiburg, Germany). The dissociation and association phases of the kinetics are fitted separately. For the separate fit of the kdiss values a time-frame of the initial 200-300 seconds in the dissociation phase is used (range of steady decrease of signal). For the separate fit of the kass values, initial time frames of approx 100 seconds are used (range of steady increase of signal) and for calculation the individual kdiss values are used with the 1:1 Langmuir association model. The average values with the standard deviations of the kinetic data together with the corresponding dissociation (KD) and association (KA) constants are calculated.
(§3) Surface plasmon resonance is performed using a Biacore instrument to determine the affinity constants for binding of the IGF antibodies to human, rat and mouse IGF-1 and IGF-2.
(§4) The analysis is initially performed by capturing the IGF antibodies on the sensor chip and injecting a range of antigen concentrations, thereby eliminating the possibility of an avidity effect.

rat IGF-1 = biological target: T2, rat IGF-1 (Rattus norvegicus, UniProt P08025); assay: as above; format: binding
T2 construct: Insulin-like growth factor-1 (IGF-1; a 70 amino-acid polypeptide)
T2 sequence (P08025 49-118 limits assumed): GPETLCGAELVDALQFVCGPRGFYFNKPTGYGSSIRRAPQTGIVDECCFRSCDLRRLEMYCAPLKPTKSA
Method: as §1, §2, §3, §4

mouse IGF-1 = biological target: T3, mouse IGF-1 (Mus musculus, UniProt P05017); assay: as above; format: binding
T3 construct: Insulin-like growth factor-1 (IGF-1; a 70 amino-acid polypeptide)
Method: as §1, §2, §3, §4

human IGF-1 = biological target: T4, human IGF-1 (Homo sapiens, UniProt P05019); assay: as above; format: binding
T4 construct: Insulin-like growth factor-1 (IGF-1; a 70 amino-acid polypeptide)
Method: as §1, §2, §3, §4

human IGF-2 = biological target: T5, human IGF-2 (Homo sapiens, UniProt P01344); assay: as above; format: binding
T5 construct: insulin-like growth factor-2 (IGF-2; a 67 amino-acid polypeptide)
Method: as §1, §2, §3, §4

mouse IGF-2 = biological target: T6, mouse IGF-2 (Mus musculus, UniProt P09535); assay: as above; format: binding
T6 construct: insulin-like growth factor-2 (IGF-2; a 67 amino-acid polypeptide)
Method: as §1, §2, §3, §4

[1] = test system: IGF-2 induced phosphorylation of ribosomal S6 protein in COLO 205 cells; assay: Western blot analysis of phosphorylated ribosomal S6; format: cell-based, human; settings: 10 ng/ml IGF-2, 30 μg/ml antibody, four hours, FIG. 4
Method: (§5) COLO 205 cells are plated in 6-well plates in medium containing 10% serum and after two days they are harvested and re-plated in serum-free medium. The cells are then incubated with 10 ng/ml IGF-1 or IGF-2 with or without 30 μg/ml GF antibody for four hours before being lysed and the cell lysate frozen after the protein concentration had been determined using a Bradford assay. Western blotting is performed by applying 13 μg of protein lysates to an SDS PAGE gel (BioRad) and the gel blotted on a Citerian gel blotting sandwich. Western blots are incubated overnight with both a rabbit anti-β actin (control) antibody and a rabbit anti-phospho-S6 ribosomal protein (Ser235/236) antibody (Cell Signaling) at 1:1000 dilutions in 1% milk powder. Following washing in TBS an anti-rabbit IgG HRPO-conjugated secondary antibody (Amersham) is applied for 1 hour and after further washes in TBS antibody reactivity is detected by ECL and captured on Hyperfilm (Amersham).

[2] = test system: IGF-1 induced phosphorylation of ribosomal S6 protein in COLO 205 cells; assay: as above; format: cell-based, human; settings: 10 ng/ml IGF-1, 30 μg/ml antibody, four hours, FIG. 4
Method: as §5

[3] = test system: IGF-2 stimulated COLO 205 cell growth; assay: COLO 205 cell growth assay (CellTiter-Glo); format: cell-based, human; settings: 10 ng/ml IGF-2; antibody 5 and 30 μg/ml; 5 days; FIG. 3B
Method: (§6) The COLO 205 colon cancer-derived cell line (ATCC # CCL-222) is plated in 96-well plates at a cell density of 1000 cells per well in serum-free RPMI medium. 10 ng/ml of either IGF-1 or IGF-2 is added in the presence or absence of a control antibody or antibodies 40183 and 40186 at concentrations of 5 and 30 μg/ml. Cells are cultured for 5 days then the cell number in each well determined using the CellTiter-Glo luminescent cell viability assay (Promega). Luminescence was recorded using a XFluor GENios Pro 4.

[4] = test system: IGF-1 stimulated COLO 205 cell growth; assay: COLO 205 cell growth assay (CellTiter-Glo); format: cell-based, human; settings: 10 ng/ml IGF-1; antibody 5 and 30 μg/ml; 5 days; FIG. 3A
Method: as §6

[5] = test system: insulin stimulated COLO 205 cell growth; assay: COLO 205 cell growth assay (CellTiter-Glo); format: cell-based, human; settings: FIG. 3C

T1 sequence (P01346 25-91 limits assumed): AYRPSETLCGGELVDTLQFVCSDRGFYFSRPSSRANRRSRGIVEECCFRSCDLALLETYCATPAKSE

- KA (rat IGF-2): 1.67e+08 M⁻¹
- kass (rat IGF-2): 602000 M⁻¹ s⁻¹
- kdiss (rat IGF-2): 0.00351 s⁻¹
- KA (rat IGF-1): 3.67e+08 M⁻¹
- kass (rat IGF-1): 1.1e+06 M⁻¹ s⁻¹
- kdiss (rat IGF-1): 0.00301 s⁻¹
- KA (mouse IGF-1): 1.44e+08 M⁻¹
- kass (mouse IGF-1): 466000 M⁻¹ s⁻¹
- kdiss (mouse IGF-1): 0.00329 s⁻¹
- KA (human IGF-1): 2.16e+08 M⁻¹
- kass (human IGF-1): 581000 M⁻¹ s⁻¹
- kdiss (human IGF-1): 0.0027 s⁻¹
- KA (human IGF-2): 2.86e+08 M⁻¹
- kass (human IGF-2): 1.03e+06 M⁻¹ s⁻¹
- kdiss (human IGF-2): 0.00362 s⁻¹
- KA (mouse IGF-2): 1.08e+08 M⁻¹
- kass (mouse IGF-2): 632000 M⁻¹ s⁻¹
- kdiss (mouse IGF-2): 0.00586 s⁻¹
B1: antibody 40186: fully human IgG1/Igλ antibody binding IGF-1 and IGF-2; heavy chain SEQ ID NO:25, light chain SEQ ID NO:26 (antibody, listed as Homo sapiens)
heavy: QVELVESGGGLVQPGGSLRLSCAASGFTFSNYWMHWVRQAPGKGLEWVSGISGWSSWTYYADSVKGRFTISRDNSKNTLYLQMNSLRAEDTAVYYCARFGIDAYTKVYFDYWGQGTLVTVSS[in this place human IgG1 constant region]
light: DIELTQPPSVSVAPGQTARISCSGDNIPLKYVSWYQQKPGQAPVLVIHDDNKRPSGIPERFSGSNSGNTATLTISGTQAEDEADYYCQSWASTGVVFGGGTKLTVLGQPKAAPSVTLFPPSSEELQANKATLVCLISDFYPGAVTVAWKGDSSPVKAGVETTTPSKQSNNKYAASSYLSLTPEQWKSHRSYSCQVTHEGSTVEKTVAPTECS
- effect on IGF-2 induced ribosomal S6 phosphorylation [1]: completely neutralizes
- effect on IGF-1 induced ribosomal S6 phosphorylation [2]: completely neutralizes
- effect on IGF-2 induced COLO 205 cell growth [3]: dose dependent inhibition
- effect on IGF-1 induced COLO 205 cell growth [4]: dose dependent inhibition
- effect on insulin induced COLO 205 cell growth [5]: no effect
